Measured values published in PubChem BioAssay AID624172 (National Center for Advancing Translational Sciences (NCATS), 2012).
Out of some 380,000 compounds screened, about 25 (0.007%) were called active. The inconclusive results got no clear call from the source; some entries with a clear call stand among them for comparison. Calls follow the shape of the dose curve; as a rule, active = well fitted activation curve with a large enough effect; inconclusive = small, poorly fitted or top-dose-only effect; inactive = no such curve, though single readings can be large or run the other way. No potency is given beside an inconclusive call; the fits are too rough.

biological target: Glucagon-like peptide 1 receptor (Homo sapiens) (UniProt P43220); assay: qHTS of GLP-1 Receptor Agonists; details: HEK293 GLP-1R CRE-luciferase, luminescence, 4-6 h, cells express a hypersensitive GLP-1R form; activation: at 45.6 µM (top of the series) unless noted; as to activation: % of control where 0% means no effect
UniProt P43220, sequence (P43220 whole entry, looked up): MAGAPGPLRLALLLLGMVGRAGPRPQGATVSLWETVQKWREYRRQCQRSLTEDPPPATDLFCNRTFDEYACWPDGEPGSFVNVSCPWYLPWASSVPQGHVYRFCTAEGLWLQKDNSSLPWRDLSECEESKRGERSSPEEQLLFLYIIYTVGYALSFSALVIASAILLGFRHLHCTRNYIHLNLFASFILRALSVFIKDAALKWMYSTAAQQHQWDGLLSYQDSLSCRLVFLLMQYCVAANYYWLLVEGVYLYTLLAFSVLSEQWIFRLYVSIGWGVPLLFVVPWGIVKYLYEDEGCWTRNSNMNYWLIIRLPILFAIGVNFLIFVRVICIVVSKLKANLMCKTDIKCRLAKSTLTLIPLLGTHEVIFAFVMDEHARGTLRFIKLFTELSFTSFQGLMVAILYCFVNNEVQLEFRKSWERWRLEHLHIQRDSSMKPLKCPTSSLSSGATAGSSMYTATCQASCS
Potency is read from the fitted curve at half-maximal effect; tags tell the direction and shape of the fitted curve.

SMILES	Potency	activation
CCOC(=O)c1cnc2c(c(C)nn2CC)c1Cl	inconclusive [activator, partial curve, poor fit]	
Fc1ccc(CNc2ncnc3cc(Cl)ccc23)cc1		inactive: -2.66%
Cc1c(Cl)cccc1NC(=O)CN1CCN(CCO)CC1	inconclusive [activator, single point]	
COc1ccc(-c2nn3c(C4CCCCC4)nnc3s2)cc1OC	active: 2.51 µM	
COc1cccc(C(=O)Nc2cccc(-c3ccc4nncn4n3)c2)c1OC	inconclusive [activator, partial curve, poor fit]	
CCOC(=O)c1c(-c2ccccc2)cn2ccccc12	inconclusive [activator, partial curve, poor fit]	
CC1=NN(C(=O)c2ccc(Cn3nc(C)cc3C)o2)C(O)(C(F)(F)F)C1 (centres undefined)		inactive: -4.57%
Cc1cc(C)cc(C(=O)NCC(=O)OCC(=O)NC2CCCc3ccccc32)c1 (centres undefined)		inconclusive: 46.6% [activator]
CCc1nc2ccc(C(=O)NCCc3ccccc3OC)cc2nc1CC	inconclusive [activator, single point]	
COCCn1c(C)cc(C(=O)CSc2nc3ccccc3c(=O)n2C(C)COC)c1C (centres undefined)	inconclusive [activator, full curve, poor fit]	
Cc1nn2c(-c3ccc(F)cc3)ccnc2c1Br	inconclusive [activator, partial curve, poor fit]	
CC(=O)n1cc(CO)c2ccccc21		inactive: 3.51%
CC(C)(C)NC(=O)COc1ccccc1C#N	inconclusive [activator, single point]	
COc1ccc(-c2noc(CN(C(=O)c3ccc(OC(C)=O)cc3)C(C)C)n2)cc1OC	inconclusive [activator, partial curve, poor fit]	
Cn1c2ccccc2c(=O)c2ccc(-c3ccc4c(c3)OCO4)cc21		inactive: -0.731%
CCOC(=O)C1=C(N)Oc2cc(C)n(CCc3ccc(OC)c(OC)c3)c(=O)c2C1c1cccnc1 (centres undefined)	inconclusive [activator, partial curve]	
Cc1c(C)c2cc(Cl)c(OCC(=O)Nc3ccccn3)cc2oc1=O		inactive: 1.84%
COc1ccc(Nc2nc(C(=O)N3CCc4ccccc4C3)cs2)cc1	inconclusive [activator, single point]	
COc1ccc(N2C(=O)CC(Sc3nc(C)c4c(n3)CCCC4)C2=O)cc1 (centres undefined)		inactive: -10.2%
CCC(C)Nc1nc(N)c([N+](=O)[O-])c(Nc2cc(OC)ccc2OC)n1 (centres undefined)	inconclusive [activator, partial curve, poor fit]	
CCOC(=O)C(=O)Nc1ccc(S(=O)(=O)Nc2nccs2)cc1		inactive: 0.716%
COCCn1c(C)cc(C(=O)COC(=O)c2ccccc2Br)c1C		inactive: -2.63%
CCOc1ccc(CCNC(=O)c2ccc3ccccc3n2)cc1OCC	inconclusive [activator, partial curve]	

SMILES	Potency	activation
CCCCN1C(=O)C(CC(=O)NCc2cccc3ccccc23)CC(C(=O)N(C)C)=C1C (centres undefined)		inactive: 0.0845%
COc1ccc(CSc2nnnn2Cc2ccccc2)cc1OC	inconclusive [activator, partial curve, poor fit]	
ClCCn1cnc2c(SCc3ccccc3Cl)ncnc21	inconclusive [activator, single point]	
COc1ccc(C/C(N)=N/OC(=O)C(c2ccccc2)c2ccccc2)cc1OC	inconclusive [activator, single point]	
CCOC(=O)c1ccc(Nc2nnc(C)c3ccccc23)cc1	inconclusive [activator, single point]	
COc1cc(C)ccc1OCCOCCOc1ccc(C)cc1[N+](=O)[O-]	inconclusive [activator, partial curve, poor fit]	
CCOc1cc(-c2nccc3cc(OC)c(OC)cc23)cc(OCC)c1OCC	inconclusive [activator, partial curve, poor fit]	
CCOc1ccc(C2=NNC(c3cccs3)=Nc3ccc(OC)cc32)cc1OCC	inconclusive [activator, single point]	
Cc1ccc(C)c(C(=O)O/N=C(\N)c2ccc(Br)cc2)c1	inconclusive [activator, single point]	
NS(=O)(=O)c1ccc(N/N=C/C=C/c2ccccc2[N+](=O)[O-])cc1	inconclusive [activator, partial curve, poor fit]	
C=C(C)COc1ccc(-c2nc(N)ncc2-c2ccc(OC)c(OC)c2)c(O)c1	inconclusive [activator, full curve, poor fit]	
CCOC(=O)COc1ccc([N+](=O)[O-])cc1-c1ccnc2cc(-c3ccc(Cl)cc3)nn12		inactive: -1.53%
COCc1cc(CN2CCCC(C(=O)Nc3ccc(-c4ccco4)cc3)C2)ccc1OC (centres undefined)	inconclusive [activator, partial curve, poor fit]	
Cc1ccnc(NC(=O)C2CCN(S(=O)(=O)c3ccc(C)c(C)c3)CC2)c1		inactive: 11.2%
O=C(O)CC(CC(=O)NCC(O)c1ccccc1)c1ccccc1 (centres undefined)		inconclusive: 34.3% [activator]
CCOC(=O)N1CCN(C(=O)CN(Cc2ccccc2)S(C)(=O)=O)CC1	inconclusive [activator, single point]	
COc1cccc(-c2cnc3c(NC=O)cc(-c4cc(C)c(O)c(C)c4)cn23)c1		inactive: 20.8%
CCOC(=O)c1ccc(NC(=S)N2CCN(C)CC2)cc1		inactive: 2.02%
Cc1ccc(C)c(CSC2=NCCN2S(=O)(=O)c2ccccc2)c1	inconclusive [activator, single point]	
CCC(C)(C)C1CCC2(CC1)NC(=O)N(CC(=O)NCCCc1ccccc1)C2=O (centres undefined)		inactive: -5.46%
Cc1ccc(CNc2oc(-c3cccs3)nc2C#N)cc1	inconclusive [activator, single point]	
COc1ccc2c(c1)c(C(=O)N/N=C/c1ccc(OC)c(OC)c1)c(C)n2C	inconclusive [activator, single point]	
COc1ccc(C(=O)c2cc(OC)c(OC)c(OC)c2)cc1OC	inconclusive [activator, partial curve, poor fit]	

SMILES	Potency	activation
COc1ccccc1-c1cc(C2CC2)nc(N)c1C#N	inconclusive [activator, single point]	
O=C(N/N=C/c1cc([N+](=O)[O-])ccc1O)C1CCCCC1		inactive: -6.79%
O=C(NCCN1CCC(n2c(=O)[nH]c3ccccc32)CC1)N1c2ccccc2Sc2ccccc21		inactive: -4.31%
Clc1cccc(Nc2nc(-c3cccnc3)cs2)c1	inconclusive [activator, single point]	
CCOC(=O)c1sc(N(Cc2ccccc2)C(=O)CCl)nc1C	inconclusive [activator, partial curve, poor fit]	
N#Cc1nc(-c2ccccc2F)oc1NC1CCCCC1	inconclusive [activator, single point]	
O=C1N[C@@H](Cc2c[nH]c3ccccc23)COC(=O)[C@H](Cc2ccc(F)cc2)C/C=C\C[C@H]1CC(=O)N(CCO)Cc1ccccc1		inactive: -2.59%
CC1(C(=O)Nc2ccc3c(c2)OCO3)Cc2c(-c3ccc4c(c3)OCO4)ccnc2O1 (centres undefined)	inconclusive [activator, partial curve, poor fit]	
O=C(OCc1ccccc1F)c1cc([N+](=O)[O-])ccc1N1CCOCC1	inconclusive [activator, single point]	
CSc1nc(N)nc(SCC(=O)OC(C)C)c1C#N	inconclusive [activator, single point]	
CCOC(=O)C1CCN(c2ncnc3cc(OC)c(OC)cc23)CC1	inconclusive [activator, partial curve, poor fit]	
CCOc1ccc(NS(=O)(=O)c2ccc(Cl)c(N=Nc3c(O)[nH]c(=S)[nH]c3=O)c2)cc1Br		inactive: -5.25%
COc1ncccc1C(=O)NC1CCCc2c1cnn2-c1cc(C)cc(C)c1 (centres undefined)	inconclusive [activator, partial curve, poor fit]	
O=c1c2c3c(sc2nc2n1CCCC2)CCCCC3	inconclusive [activator, partial curve]	
COC(=O)c1cc(NC(=O)c2cccc(C(F)(F)F)c2)c(=O)oc1C		inactive: 8.91%
OCc1cn(-c2ccccc2)nc1-c1ccc2c(c1)OCCO2		inactive: 22.3%
Brc1ccc(-c2nnc(Cc3ccccc3)o2)cc1	inconclusive [activator, partial curve]	
CC(=O)NCCC(=O)N1CCc2c([nH]c3ccccc23)C1c1cccc(C)c1 (centres undefined)		inactive: 0.242%
COc1cc2c(cc1OC)-c1cc(NCc3ccccn3)nc(=O)n1CC2	inconclusive [activator, single point]	
CCOC(=O)c1ccc2nc(C)c3c(c2c1)OC(C)C3 (centres undefined)	inconclusive [activator, partial curve, poor fit]	
N#CC1CC(c2ccccc2)=NN1c1ccccc1[N+](=O)[O-] (centres undefined)	inconclusive [activator, partial curve, poor fit]	
COc1ccc(C(=O)[C@H]2[C@H]3C(=O)N(c4ccc(C)cc4)C(=O)[C@H]3C3C=CC=NN32)cc1 (some centres undefined)		inactive: 2.24%
O=C(Nn1cnnc1)c1cccc(S(=O)(=O)N2CCOCC2)c1		inconclusive: 41.4% [activator]
